Source: article PMC4336329 (PLoS ONE, 2015)
Screen size: about 310,000 compounds; about 2,200 (0.71%) showed an effect of 50% or more. Effects have a minus sign here. The list shows a part of the results.

Biological target: human ether-à-go-go-related gene (hERG) potassium channel (human, UniProt Q12809)
Assay: primary screen, population patch clamp on CHO cells stably expressing hERG

Sequence of human ether-à-go-go-related gene (hERG) potassium channel (Q12809 whole entry, looked up): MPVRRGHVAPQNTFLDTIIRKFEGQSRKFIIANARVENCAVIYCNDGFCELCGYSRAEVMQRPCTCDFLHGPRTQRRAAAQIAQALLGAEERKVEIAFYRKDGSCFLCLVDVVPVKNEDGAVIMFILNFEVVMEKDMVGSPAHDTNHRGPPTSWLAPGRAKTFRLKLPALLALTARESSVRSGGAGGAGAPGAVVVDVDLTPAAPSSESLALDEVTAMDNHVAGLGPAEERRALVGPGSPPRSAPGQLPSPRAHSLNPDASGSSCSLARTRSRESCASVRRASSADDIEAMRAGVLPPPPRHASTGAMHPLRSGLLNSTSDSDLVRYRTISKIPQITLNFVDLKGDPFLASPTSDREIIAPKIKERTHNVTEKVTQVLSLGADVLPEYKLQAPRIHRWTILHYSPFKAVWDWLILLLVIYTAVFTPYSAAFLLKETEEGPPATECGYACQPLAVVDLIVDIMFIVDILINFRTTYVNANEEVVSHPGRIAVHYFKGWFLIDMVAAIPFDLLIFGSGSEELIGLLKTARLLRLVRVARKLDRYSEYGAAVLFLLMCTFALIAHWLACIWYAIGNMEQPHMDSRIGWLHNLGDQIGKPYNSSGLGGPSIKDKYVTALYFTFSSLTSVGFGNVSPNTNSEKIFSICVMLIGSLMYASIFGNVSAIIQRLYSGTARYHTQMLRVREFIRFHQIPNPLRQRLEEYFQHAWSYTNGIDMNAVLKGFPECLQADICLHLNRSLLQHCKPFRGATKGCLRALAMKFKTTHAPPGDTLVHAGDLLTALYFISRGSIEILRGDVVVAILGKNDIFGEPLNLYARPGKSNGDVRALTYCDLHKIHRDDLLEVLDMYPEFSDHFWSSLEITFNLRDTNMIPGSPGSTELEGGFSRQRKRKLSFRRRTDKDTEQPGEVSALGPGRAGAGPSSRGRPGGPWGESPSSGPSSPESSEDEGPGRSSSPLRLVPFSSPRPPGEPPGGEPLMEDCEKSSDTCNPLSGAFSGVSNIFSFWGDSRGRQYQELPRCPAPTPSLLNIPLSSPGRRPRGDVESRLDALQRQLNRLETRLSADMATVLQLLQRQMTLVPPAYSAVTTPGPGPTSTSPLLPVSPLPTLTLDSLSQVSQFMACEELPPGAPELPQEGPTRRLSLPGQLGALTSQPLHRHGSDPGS

Structure (SMILES) | hERG current change (%, negative = inhibition) at 1uM
Cc1ccccc1NS(=O)(=O)c1ccc(NC(=O)N2CCCCC2)cc1 | 6.57%
NC(=O)C1CCN(C(=O)CCNS(=O)(=O)c2cc(Br)cnc2N)CC1 | 13.5%
Cc1cc(C)nc(NC(=O)c2ccc(Br)cc2)n1 | 13.6%
CCC/C([O-])=N\S(=O)(=O)c1ccc(N=NN(C)C)cc1.[K+] | 13.1%
CN(C)C(=O)Oc1cccc(NC(=O)c2ccccc2C(F)(F)F)c1 | 4.66%
CCc1noc(C)c1C(=O)Nc1sc(C(=O)N(C)C)c(C)c1C#N | 18.6%
Cc1nc2ccc(C(=O)c3ccccc3)cc2[nH]1 | 12.2%
OCCNCC(O)Cn1ccc2ccccc21 (stereo not shown) | 10.5%
CCc1cccc(C)c1NC(=S)N(CCN(C)C)C(C)c1ccco1 (stereo not shown) | 0.454%
COc1ccc(-c2nc(CS(=O)(=O)CC(=O)NCc3ccccc3OC)c(C)o2)cc1 | 5.65%
Nc1ccc(C(=O)N/N=C/c2cn(Cc3ccccc3)c3ccccc23)cc1 | 19.5%
O=C(Nc1cccc(NC(=O)c2nccc3ccccc23)c1)c1ccco1 | 14.1%
CCOC(=O)C1CCCN(C(=O)c2ccc(CS(=O)(=O)Cc3ccccc3C)o2)C1 (stereo not shown) | -3.4%
COc1ccccc1-c1nnc(Nc2nc3c(OC)cccc3s2)o1 | 12.3%
COC(=O)c1cccc(N2C(=O)C3CC=CCC3C2=O)c1 (stereo not shown) | 9.51%
CCN(CC(=O)Nc1c(C(=O)OC)[nH]c2ccc(Cl)cc12)c1ccc2c(c1)OCO2 | 14.7%
Cc1ccc(NS(=O)(=O)c2cccc3nsnc23)cc1C | -0.169%
CCN(CC)CC(=O)N1CCCC(C(=O)c2ccccc2OC)C1 (stereo not shown) | 6.77%
O=C1CNC(=S)N1C(CO)c1ccccc1 (stereo not shown) | 17%
Cc1ccc(NC(=O)NCCCN2CCCC2=O)cc1Cl | 16.3%
C=CCNC(=O)CN1CCC(c2nc3cc(C)c(C)cc3[nH]2)CC1 | -4.9%
COc1ccc(N2CCN(Cc3nc4scc(-c5cccs5)c4c(=O)[nH]3)CC2)cc1 | -0.0962%
CCc1ccc(NC(=O)CCCNC(=O)Cn2cnc3sc(C)c(C)c3c2=O)cc1 | 9.87%

Structure (SMILES) | hERG current change (%, negative = inhibition) at 1uM
Cc1nccc(-c2ccc(-n3cnc4ccccc43)cc2)n1 | 8.1%
CCCCCCNC(=O)Cc1nc2nc(C)cc(C)n2n1 | 10.4%
CSc1ccccc1OCc1cc(C(=O)N(Cc2nccn2C)C(C)C)no1 | 2.51%
Cc1ccc(CNC(=O)C2CC(c3ccc([N+](=O)[O-])cc3)=NO2)cc1 (stereo not shown) | -5.57%
COc1cc(S(=O)(=O)NCc2ccccc2)ccc1F | 9.89%
COC(=O)CCCNS(=O)(=O)c1ccc2ccccc2c1 | 10.7%
CCOC(=O)N1CCN(C(=O)c2ccc(-n3c(=S)[nH]c4ccccc4c3=O)cc2)CC1 | 11.8%
COc1cc(/C=C2\C(=N)N3N=C(CC(=O)N4CCOCC4)SC3=NC2=O)cc(OC)c1OC | 18.9%
COc1ccc(S(=O)(=O)N2CCN(C(=O)c3cc4c(s3)CCCC4)CC2)cc1 | -3.32%
O=C(CN1CCN(C(c2ccccc2)c2ccccc2)CC1)NCc1ccccc1 | 11.5%
O=C(NCC1CCCO1)c1ccccc1OCc1ccc(F)cc1 (stereo not shown) | 0.646%
CC1CCCCN1C(=O)c1cnn2c(C(F)(F)F)cc(-c3ccco3)nc12 (stereo not shown) | -4.66%
Cn1c(SCC(=O)N2CCOCC2)nnc1-c1ccc2ncccc2c1 | 14%
COc1ccc(N(CC(=O)Nc2cccc(C(C)=O)c2)S(C)(=O)=O)cc1OC | 2.4%
Cc1ccc(NC(CC(=O)c2ccccc2)C(=O)O)cc1Cl (stereo not shown) | 8.92%
COc1ccc(OC)c(CN2CCSCC2)c1 | 11.3%
COc1ccc(CCN2C(=O)C(O)=C(C(C)=O)C2c2ccccc2OC)cc1OC (stereo not shown) | 19.2%
Cc1ccc(S(=O)(=O)N2CCN(C(=O)COC(=O)c3ccccn3)CC2)c(C)c1 | 13.5%
COc1cc2c(cc1OC)C(C)N(CCN1C(=O)c3ccccc3C1=O)CC2 (stereo not shown) | 16.1%
O=[N+]([O-])c1ccccc1/C=N\N1CCN(c2ccccc2)CC1 | 14.2%
COCCNC(=O)C(=O)c1c(-c2ccccc2)[nH]c2ccccc12 | 4.01%
CCOC(=O)N1CCN(C(=O)c2cn(C)c3ccc(S(=O)(=O)N(C)C4CCCCC4)cc3c2=O)CC1 | -16.7%
CC1(C)CCC(C)(C)NC(=S)N1 | 17.8%

Structure (SMILES) | hERG current change (%, negative = inhibition) at 1uM
COC(=O)c1cccc(NS(=O)(=O)c2ccc(OC)c(OC)c2)c1C | -1.89%
CCc1ccccc1NC(=O)CNC(=O)c1n[nH]c(=O)c2ccccc12 | 12.4%
C/C(=N\N=C1\NC(=O)CS1)c1cccs1 | 13.4%
O=C(Nc1ccc2c(c1)OCO2)c1c(Cl)nc2sccn12 | 6.3%
O=C(CSc1nc(C2CC2)nc2sc3c(c12)CCCC3)NCc1ccco1 | 4.94%
Cn1c(O)c(N=NC(=O)C2COc3ccccc3O2)c2ccccc21 (stereo not shown) | 10.7%
Cc1ccc(S(=O)(=O)NCC(=O)NCc2ccncc2)cc1 | 5.96%
CCN1CC=C(c2c[nH]c3ccccc23)CC1 | 3.56%
CCOC(=O)c1ccccc1NC(=O)COC(=O)CSc1ccccc1 | -2.31%
CC(C)Cn1cc(C(=O)NCCCN2CCCC2=O)c2c3ccccc3n(C)c2c1=O | 1.48%
COc1ccc2c(c1)C(=C(C#N)C#N)C(=O)N2CCc1ccccc1 | 9.16%
Cc1cccc(OCC(O)Cn2c(=N)n(CCN3CCCCC3)c3ccccc32)c1.Cl (stereo not shown) | -59.8%
COc1ccc(-n2c(=S)[nH]c(=O)c3cccnc32)cc1 | 10.2%
COc1cccc(-c2nc3ccc(C(=O)N4CCCC(O)C4)cc3o2)c1 (stereo not shown) | 19.3%
COC(=O)c1[nH]c2ccc(C)cc2c1NC(=O)CN1CCCC(C)(C)C1 | 10.9%
CCC(C)(C)NC(=O)/C=C/c1ccc(OC)c(S(=O)(=O)N2CCOCC2)c1 | 8.63%
O=C(NCCCNc1ccnc2cc(Cl)ccc12)c1ccccc1F | -38.9%
CC(C)(C)c1cc(NCc2ccccn2)n2ncc(-c3ccccc3)c2n1 | 13.4%
O=C1C=C(Nc2ccccc2)C(=O)c2ccccc21 | 13.6%
CC(COc1ccccc1Cc1ccccc1)N1CCCCC1.O=P(O)(O)O (stereo not shown) | -48.2%
Cc1cccc(C)c1NC1=NC2(CCCCC2)N=C(N)N1 | 11.5%
CCC(C)c1ccc(C(C)NC(=S)NCc2ccc(F)cc2)cc1 (stereo not shown) | 8.46%
CN(CC(=O)Nc1ccccc1C(F)(F)F)C(=O)CSCc1ccccc1 | 7.51%

Structure (SMILES) | hERG current change (%, negative = inhibition) at 1uM
O=C1CCCCC1Sc1nnc(Nc2ccccc2)s1 (stereo not shown) | 3.7%
CC1CN(C(=S)Nc2ccccc2)CC(C)O1 (stereo not shown) | 9.63%
CCCCN(C(=O)c1ccc2c(c1)OCO2)c1c(N)n(CCCC)c(=O)[nH]c1=O | -4.48%
CCOc1cc(/C=N/NC(=O)c2cc(C)[nH]n2)ccc1OC(=O)c1ccc([N+](=O)[O-])cc1 | 14.3%
COc1ccc(C(=O)C2CCN(C(=O)Nc3ccccc3C)CC2)cc1 | 24.4%
O=C(COC(=O)c1cccs1)NCC1CCCO1 (stereo not shown) | 7.9%
O=C(Cn1nnc(-c2ccc3c(c2)OCO3)n1)NCc1ccccc1 | 14.2%
CCCCNC(=S)Nc1ccc(C(F)(F)F)cc1 | -9.25%
CCOC(=O)c1c(C)[nH]c(/C(C)=N/O)c1C | 10.5%
COc1ccc(CNC(=O)COC(=O)C2CCN(S(=O)(=O)c3ccccc3C(F)(F)F)CC2)cc1 | 5.01%
Cc1nc(C)c(/C(O)=C/c2nc3ccc([N+](=O)[O-])cc3oc2=O)o1 | 9.57%
Cc1cc(C(=O)COc2ncnc3sccc23)c(C)n1C | 9.96%
Cc1nc2nc(SCc3ccccc3)[nH]n2c(=O)c1CCC(C)C | 2.49%
CNC(=O)c1sccc1SCc1c(Cl)cccc1Cl | 9.99%
COc1ccc(CNC(=O)C2CCN(S(=O)(=O)N3CCOCC3)CC2)cc1 | -6.41%
Cc1ccc(SCc2c(C(=O)N/N=C/c3ccccc3)nnn2-c2nonc2N)cc1 | -5.4%
N#C/C(C(=O)NCc1ccco1)=C1/SC(Cc2ccc(F)cc2)C(=O)N1c1ccccc1 (stereo not shown) | 3.66%
CCOc1ccc(S(=O)(=O)N(C)c2ccc(OCC(=O)N3CCOCC3)cc2)cc1 | 8.09%
CCN(CC(=O)Nc1cccc(C(C)=O)c1)S(=O)(=O)c1ccc(OC)cc1 | 7.45%
CCCSc1nsc(SCCC)c1C#N | 12.5%
O=C1CC2(CCN(C(=O)C3CC(=O)N(c4ccccc4)C3)CC2)Oc2ccccc21 (stereo not shown) | -51.5%
O=C(CSc1nnc(CNC(=O)c2c(F)cccc2F)o1)Nc1ccc2c(c1)OCCO2 | 11.3%
